# Reference: the supplement of paper PMC8728848
# Some of the results follow.
# B1: X56-1 (Clostridium perfringens), P26831 (protein)
# chain: MGSSHHHHHHSSGLVPRGSHMASDPNRIIATYISNRQDAPTGNPDNIFDNNASTELVYKNPNRIDVGTYVGVKYSNPITLNNVEFLMGANSNPNDTMQKAKIQYTVDGREWIDLEEGVEYTMPGAIKVENLDLKVRGVRLIATEARENTWLGVRDINVNKKEDSNSGVEF
# What was measured:
# Assay in all cases: glycan array binding signal (z-score within array); higher = stronger binding
# Conditions in all cases: glycan notation: IUPAC condensed, linker removed
# [1] = target: Fuc(a1-2)Gal
# How it was run: (§1)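 Glycan array data were curated from 3228 arrays in the Consortium for Functional Glycomics database and kept only where the protein sequence was available. Glycan names were converted to IUPAC-condensed notation, and columns mapping to the same glycan were averaged. The binding signal is a within-array Z-score, averaged across arrays of the same protein sequence at different concentrations or buffers and across linkers. Negative Z-scores can be read as non-binding.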
# [2] = target: Fuc(a1-2)Gal(b1-3)GalNAc
# How it was run: as §1
# [3] = target: Fuc(a1-2)Gal(b1-3)GalNAc(b1-3)Gal
# How it was run: as §1
# [4] = target: Fuc(a1-2)Gal(b1-3)GalNAc(b1-3)Gal(a1-4)Gal(b1-4)Glc
# How it was run: as §1
# [5] = target: Fuc(a1-2)Gal(b1-3)GalNAc(b1-3)Gal(b1-4)Glc
# How it was run: as §1
# [6] = target: Fuc(a1-2)Gal(b1-3)GalNAc(b1-4)[Neu5Ac(a2-3)]Gal(b1-4)Glc
# How it was run: as §1
# [7] = target: Fuc(a1-2)Gal(b1-3)[Fuc(a1-4)]GlcNAc
# How it was run: as §1
# [8] = target: Fuc(a1-2)Gal(b1-4)Glc
# How it was run: as §1
# [9] = target: Fuc(a1-2)Gal(b1-4)Glc6S
# How it was run: as §1
# [10] = target: Fuc(a1-2)Gal(b1-4)GlcNAc
# How it was run: as §1
# [11] = target: Fuc(a1-2)Gal(b1-4)GlcNAc(b1-3)Gal(b1-4)GlcNAc
# How it was run: as §1
# [12] = target: Fuc(a1-2)Gal(b1-4)GlcNAc(b1-3)Gal(b1-4)GlcNAc(b1-3)Gal(b1-4)GlcNAc
# How it was run: as §1
# [13] = target: Fuc(a1-2)Gal(b1-4)GlcNAc6S
# How it was run: as §1
# [14] = target: Fuc(a1-2)Gal(b1-4)[Fuc(a1-3)]GalNAc(b1-3)Gal(b1-4)[Fuc(a1-3)]GlcNAc
# How it was run: as §1
# [15] = target: Fuc(a1-2)Gal(b1-4)[Fuc(a1-3)]GalNAc(b1-3)Gal(b1-4)[Fuc(a1-3)]GlcNAc(b1-3)Gal(b1-4)[Fuc(a1-3)]GalNAc
# How it was run: as §1
# [16] = target: Fuc(a1-2)Gal(b1-4)[Fuc(a1-3)]GlcNAc
# How it was run: as §1
# [17] = target: Fuc(a1-2)Gal6S(b1-4)Glc
# How it was run: as §1
# [18] = target: Fuc(a1-2)Gal6S(b1-4)Glc6S
# How it was run: as §1
# [19] = target: Fuc(a1-2)Gal6S(b1-4)GlcNAc
# How it was run: as §1
# [20] = target: Fuc(a1-2)GlcNAc
# How it was run: as §1
# [21] = target: Fuc(a1-2)[Gal(a1-3)]Gal
# How it was run: as §1
# [22] = target: Fuc(a1-2)[Gal(a1-3)]Gal(b1-3)GlcNAc
# How it was run: as §1
# [23] = target: Fuc(a1-2)[Gal(a1-3)]Gal(b1-4)Glc
# How it was run: as §1
# [24] = target: Fuc(a1-2)[Gal(a1-3)]Gal(b1-4)GlcNAc
# How it was run: as §1
# [25] = target: Fuc(a1-2)[Gal(a1-3)]Gal(b1-4)[Fuc(a1-3)]GlcNAc
# How it was run: as §1
# [26] = target: Fuc(a1-2)[Gal(a1-4)]Gal(b1-4)GalNAc
# How it was run: as §1
# [27] = target: Fuc(a1-2)[GalNAc(a1-3)]Gal
# How it was run: as §1
# [28] = target: Fuc(a1-2)[GalNAc(a1-3)]Gal(b1-3)GlcNAc
# How it was run: as §1
# [29] = target: Fuc(a1-2)[GalNAc(a1-3)]Gal(b1-4)Glc
# How it was run: as §1
# [30] = target: Fuc(a1-2)[GalNAc(a1-3)]Gal(b1-4)GlcNAc
# How it was run: as §1
binder,measurement,setting,value
B1,glycan array binding signal (z-score),[1],0.005
same,glycan array binding signal (z-score),[2],0.09
same,glycan array binding signal (z-score),[3],0.726
same,glycan array binding signal (z-score),[4],0.367
same,glycan array binding signal (z-score),[5],0.136
same,glycan array binding signal (z-score),[6],-0.392
same,glycan array binding signal (z-score),[7],0.103
same,glycan array binding signal (z-score),[8],-0.15
same,glycan array binding signal (z-score),[9],-0.201
same,glycan array binding signal (z-score),[10],0.322
same,glycan array binding signal (z-score),[11],-0.011
same,glycan array binding signal (z-score),[12],-0.369
same,glycan array binding signal (z-score),[13],-0.244
same,glycan array binding signal (z-score),[14],0.083
same,glycan array binding signal (z-score),[15],-0.025
same,glycan array binding signal (z-score),[16],0.085
same,glycan array binding signal (z-score),[17],-0.037
same,glycan array binding signal (z-score),[18],-0.263
same,glycan array binding signal (z-score),[19],-0.389
same,glycan array binding signal (z-score),[20],0.123
same,glycan array binding signal (z-score),[21],-0.238
same,glycan array binding signal (z-score),[22],-0.349
same,glycan array binding signal (z-score),[23],-0.234
same,glycan array binding signal (z-score),[24],-0.44
same,glycan array binding signal (z-score),[25],-0.278
same,glycan array binding signal (z-score),[26],-0.145
same,glycan array binding signal (z-score),[27],0.581
same,glycan array binding signal (z-score),[28],-0.09
same,glycan array binding signal (z-score),[29],-0.425
same,glycan array binding signal (z-score),[30],0.008
